T1: PRYSPRY domain of human TRIM21 with N-terminal 6xHis tag (human)
T1 construct: Expressed in E. coli; also called hTRIM21; human TRIM21.PRYSPRY
T1 chain: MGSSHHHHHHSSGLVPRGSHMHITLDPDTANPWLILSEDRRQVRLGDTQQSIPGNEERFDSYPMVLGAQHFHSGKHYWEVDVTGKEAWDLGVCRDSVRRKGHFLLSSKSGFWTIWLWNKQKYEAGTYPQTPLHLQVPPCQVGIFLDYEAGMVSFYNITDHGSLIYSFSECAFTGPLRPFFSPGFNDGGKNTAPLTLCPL

T2: PRYSPRY domain of mouse TRIM21 with N-terminal 6xHis tag (mouse)
T2 construct: Expressed in E. coli; also called mTRIM21; mouse TRIM21.PRYSPRY
T2 chain: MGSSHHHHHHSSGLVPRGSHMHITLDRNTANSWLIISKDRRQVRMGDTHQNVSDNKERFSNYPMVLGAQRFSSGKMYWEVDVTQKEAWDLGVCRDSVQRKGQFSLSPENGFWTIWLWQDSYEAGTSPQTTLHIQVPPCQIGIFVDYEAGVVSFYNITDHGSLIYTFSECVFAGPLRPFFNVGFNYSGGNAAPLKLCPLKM

B1: MRAH-G1d/MRAL-KT0 D312S (antibody, human IgG1, kappa)
heavy: QVQLQESGPGLVRPSQTLSLTCTVSGYSITSDHAWSWVRQPPGRGLEWIGYISYSGITTYNPSLKSRVTMLRDTSKNQFSLRLSSVTAADTAVYYCARSLARTTAMDYWGQGSLVTVSS[human IgG1 constant region with D312S (EU numbers) omitted here]
light: DIQMTQSPSSLSASVGDRVTITCRASQDISSYLNWYQQKPGKAPKLLIYYTSRLHSGVPSRFSGSGSGTDFTFTISSLQPEDIATYYCQQGNTLPYTFGQGTKVEIKRTVAAPSVFIFPPSDEQLKSGTASVVCLLNNFYPREAKVQWKVDNALQSGNSQESVTEQDSKDSTYSLSSTLTLSKADYEKHKVYACEVTHQGLSSPVTKSFNRGEC
notes: copies: 2 + 2
B2: MRAH-G1d/MRAL-KT0 D312W (antibody, human IgG1, kappa)
heavy: QVQLQESGPGLVRPSQTLSLTCTVSGYSITSDHAWSWVRQPPGRGLEWIGYISYSGITTYNPSLKSRVTMLRDTSKNQFSLRLSSVTAADTAVYYCARSLARTTAMDYWGQGSLVTVSS[human IgG1 constant region with D312W (EU numbers) omitted here]
light: B1 light
notes: copies: 2 + 2
B3: MRAH-G1d/MRAL-KT0 D312V (antibody, human IgG1, kappa)
heavy: QVQLQESGPGLVRPSQTLSLTCTVSGYSITSDHAWSWVRQPPGRGLEWIGYISYSGITTYNPSLKSRVTMLRDTSKNQFSLRLSSVTAADTAVYYCARSLARTTAMDYWGQGSLVTVSS[human IgG1 constant region with D312V (EU numbers) omitted here]
light: B1 light
notes: copies: 2 + 2
B4: MRAH-G1d/MRAL-KT0 E345F (antibody, human IgG1, kappa)
heavy: QVQLQESGPGLVRPSQTLSLTCTVSGYSITSDHAWSWVRQPPGRGLEWIGYISYSGITTYNPSLKSRVTMLRDTSKNQFSLRLSSVTAADTAVYYCARSLARTTAMDYWGQGSLVTVSS[human IgG1 constant region with E345F (EU numbers) omitted here]
light: B1 light
B5: MRAH-G1d/MRAL-KT0 E345D (antibody, human IgG1, kappa)
heavy: QVQLQESGPGLVRPSQTLSLTCTVSGYSITSDHAWSWVRQPPGRGLEWIGYISYSGITTYNPSLKSRVTMLRDTSKNQFSLRLSSVTAADTAVYYCARSLARTTAMDYWGQGSLVTVSS[human IgG1 constant region with E345D (EU numbers) omitted here]
light: B1 light
B6: MRAH-G1d/MRAL-KT0 E345I (antibody, human IgG1, kappa)
heavy: QVQLQESGPGLVRPSQTLSLTCTVSGYSITSDHAWSWVRQPPGRGLEWIGYISYSGITTYNPSLKSRVTMLRDTSKNQFSLRLSSVTAADTAVYYCARSLARTTAMDYWGQGSLVTVSS[human IgG1 constant region with E345I (EU numbers) omitted here]
light: B1 light
B7: MRAH-G1d/MRAL-KT0 E345L (antibody, human IgG1, kappa)
heavy: QVQLQESGPGLVRPSQTLSLTCTVSGYSITSDHAWSWVRQPPGRGLEWIGYISYSGITTYNPSLKSRVTMLRDTSKNQFSLRLSSVTAADTAVYYCARSLARTTAMDYWGQGSLVTVSS[human IgG1 constant region with E345L (EU numbers) omitted here]
light: B1 light
B8: MRAH-G1d/MRAL-KT0 D312T (antibody, human IgG1, kappa)
heavy: QVQLQESGPGLVRPSQTLSLTCTVSGYSITSDHAWSWVRQPPGRGLEWIGYISYSGITTYNPSLKSRVTMLRDTSKNQFSLRLSSVTAADTAVYYCARSLARTTAMDYWGQGSLVTVSS[human IgG1 constant region with D312T (EU numbers) omitted here]
light: B1 light
notes: copies: 2 + 2
B9: MRAH-G1d/MRAL-KT0 D312Y (antibody, human IgG1, kappa)
heavy: QVQLQESGPGLVRPSQTLSLTCTVSGYSITSDHAWSWVRQPPGRGLEWIGYISYSGITTYNPSLKSRVTMLRDTSKNQFSLRLSSVTAADTAVYYCARSLARTTAMDYWGQGSLVTVSS[human IgG1 constant region with D312Y (EU numbers) omitted here]
light: B1 light
notes: copies: 2 + 2
B10: MRAH-G1d/MRAL-KT0 E345H (antibody, human IgG1, kappa)
heavy: QVQLQESGPGLVRPSQTLSLTCTVSGYSITSDHAWSWVRQPPGRGLEWIGYISYSGITTYNPSLKSRVTMLRDTSKNQFSLRLSSVTAADTAVYYCARSLARTTAMDYWGQGSLVTVSS[human IgG1 constant region with E345H (EU numbers) omitted here]
light: B1 light

Tests used:
Test in all cases: SPR, Protein L capture
[1] = target: T1, PRYSPRY domain of human TRIM21 with …
[2] = target: T3, human FcRn (human, UniProt P55899 fragment; P61769 fragment, limits assumed)
T3 construct: also called hFcRn
T3 sequence (P55899 24-290 limits assumed, form in doubt, chain 1 of 2): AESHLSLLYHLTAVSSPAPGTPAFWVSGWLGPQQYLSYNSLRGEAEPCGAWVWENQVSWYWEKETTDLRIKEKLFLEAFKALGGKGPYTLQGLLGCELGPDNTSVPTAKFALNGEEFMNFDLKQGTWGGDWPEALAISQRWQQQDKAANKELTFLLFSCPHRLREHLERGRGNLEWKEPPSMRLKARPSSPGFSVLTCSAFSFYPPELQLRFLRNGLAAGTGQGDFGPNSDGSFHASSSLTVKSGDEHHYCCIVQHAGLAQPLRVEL
T3 sequence (P61769 21-119 limits assumed, form in doubt, chain 2 of 2, further chain): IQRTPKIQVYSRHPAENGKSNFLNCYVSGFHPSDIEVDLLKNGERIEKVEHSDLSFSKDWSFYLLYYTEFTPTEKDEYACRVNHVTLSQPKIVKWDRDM

[3] = target: T2, PRYSPRY domain of mouse TRIM21 with …

| Binder | hTRIM21 binding level ratio (variant/control antibody) [1] | hFcRn binding level ratio (variant/control antibody) [2] | mTRIM21 binding level ratio (variant/control antibody) [3] |
| --- | --- | --- | --- |
| B1 | 1.14 | 1.05 | 2.53 |
| B2 | 1.25 | 0.04 | 2.67 |
| B3 | 0.937 | 0.73 | 2.59 |
| B4 | 0.496 | 0.92 | 2.43 |
| B5 | 0.908 | 0.92 | 2.26 |
| B6 | 0.518 | 0.88 | 2.52 |
| B7 | 0.459 | 0.86 | 2.36 |
| B8 | 1.11 | 0.94 | 2.75 |
| B9 | 1.27 | 0.06 | 2.9 |
| B10 | 0.591 | 0.67 | 2.64 |

— patent US20210238308A1 (Chugai, published 2021)
